Reference: PMC7819943, “Rice protein-binding microarrays: a tool to detect cis-acting elements near promoter regions in rice”
This is one part of the list.

The sequences below were run against T1, OsWOX13 (Oryza sativa, UniProt Q5QMM3 1-267) (assay: protein-binding microarray (RPBM); PBS, 2% BSA, 51.3 ng/ul salmon testes DNA, 50 uM zinc acetate, 200 nM TF, 25 C, 1 h; high values mean tight binding). Conditions: protein: recombinant; tags: N-terminal polyhistidine and DsRed monomer fusion (pET32a); label: CyDye5-dUTP incorporated in the synthesized complementary strand; 3' TTTTT single-stranded linker to array surface; dsDNA, one strand shown.
T1 sequence: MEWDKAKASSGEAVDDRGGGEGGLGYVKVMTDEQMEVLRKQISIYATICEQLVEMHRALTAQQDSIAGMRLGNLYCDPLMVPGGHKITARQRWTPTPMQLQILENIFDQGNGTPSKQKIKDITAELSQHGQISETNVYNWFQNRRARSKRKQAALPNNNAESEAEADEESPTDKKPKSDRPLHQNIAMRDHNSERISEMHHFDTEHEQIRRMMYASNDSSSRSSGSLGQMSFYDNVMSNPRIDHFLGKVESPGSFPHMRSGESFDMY
How it was run: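 Polyhistidine-tagged DsRed fusions of transcription factors, joined at the N-terminus, were expressed in E. coli BL21-CodonPlus and isolated on Ni–NTA. They were incubated at 200 nM for 1 h at 25 °C on a custom Agilent array, double-stranded and BSA-blocked, in PBS with 2% BSA, salmon testes DNA and 50 µM zinc acetate. The binding signal is per-feature fluorescence intensity (arbitrary units) read on an Axon 4000B scanner after washing.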

Sequence | binding signal
TTTGATTGGATGTGACACATCCTAGTATAACGAATCTGAACGGAGTCACCTAGTGCAG | 37000 fluorescence intensity (a.u.)
AGAACAAATTGATTAATATTTATACATGCTGAAAAGCTTACGGAGTCACCTAGTGCAG | 19500 fluorescence intensity (a.u.)
ATCGTGATATAAAACCAATTAACCCACTCTCCCCAAATACCGGAGTCACCTAGTGCAG | 4660 fluorescence intensity (a.u.)
ATAATTATTTTATTTTGGGACAGGATAGTTAATGGAGAGGCGGAGTCACCTAGTGCAG | 9140 fluorescence intensity (a.u.)
AGATTAATTTCTGAGCCCCTGATTAGTTGCTCCTTCTCCACGGAGTCACCTAGTGCAG | 29000 fluorescence intensity (a.u.)
GCTATAAATTTAGATAGAAAATATGTTTATATTCGTTATACGGAGTCACCTAGTGCAG | 6400 fluorescence intensity (a.u.)
AGTACTAATGTGCATTGATCATTCTATTATCCCATCCGTCCGGAGTCACCTAGTGCAG | 3810 fluorescence intensity (a.u.)
TTTCAAAATTTAAAATTTTGACTTTATCTGATATAAGCCACGGAGTCACCTAGTGCAG | 6290 fluorescence intensity (a.u.)
AATCAAATCATCTCATCAAAGTCCAATCCCGCTAGCTCCACGGAGTCACCTAGTGCAG | 9000 fluorescence intensity (a.u.)
ATTTGATTTGATCACAACACATTAGCTTGGTTGCTCCATGCGGAGTCACCTAGTGCAG | 41800 fluorescence intensity (a.u.)
TTCTTCGAGATCACCATGATTGAACGATCTCCGAGCTGCTCGGAGTCACCTAGTGCAG | 5910 fluorescence intensity (a.u.)
AACATCAATTAAAATAAATCTGAAGGGACTAAATGATAAACGGAGTCACCTAGTGCAG | 5220 fluorescence intensity (a.u.)
GCAGATTAGTTGTGGCAAACATTCTCTTGTGTGCAGCACTCGGAGTCACCTAGTGCAG | 3650 fluorescence intensity (a.u.)
TTTGTCATAATTTGATAAAATTTTCCTCTTACCATATATCCGGAGTCACCTAGTGCAG | 7320 fluorescence intensity (a.u.)
ATCAAGATAATTACATCAAAGTGATACAGGAGTCATAAAACGGAGTCACCTAGTGCAG | 5770 fluorescence intensity (a.u.)
ACTCCTAATTAATTTGCATGCATCTTCGCAGCAACTCAGTCGGAGTCACCTAGTGCAG | 37800 fluorescence intensity (a.u.)
TAAAACAATTATATGCCCATAATGGTATTTTAGGTATTTTCGGAGTCACCTAGTGCAG | 5040 fluorescence intensity (a.u.)
TTAAACGTAGATTACTAACAAAACCGATTCCATAACCCCTCGGAGTCACCTAGTGCAG | 3350 fluorescence intensity (a.u.)
TCAGACTCTTGTTGATTGTGATGACTTTGTCTGCAGACTTCGGAGTCACCTAGTGCAG | 11100 fluorescence intensity (a.u.)
TTTTATTGTTAACTAGGCATGATTTTACGTGGAATCTTGTCGGAGTCACCTAGTGCAG | 6660 fluorescence intensity (a.u.)
TCTAAACACCACCTTAATTTGTAGGAGTAGCTGTCTGTCTCGGAGTCACCTAGTGCAG | 10700 fluorescence intensity (a.u.)
ACCAGATTATTACAGAATCTTGTGAAAGATAAAATGGTCTCGGAGTCACCTAGTGCAG | 6450 fluorescence intensity (a.u.)
CATTGTGATTAGCCTTAACCAATTATAACCATCACGGCAACGGAGTCACCTAGTGCAG | 33900 fluorescence intensity (a.u.)
CTCATTCCTTCAATCATCATGAGTTAATGACACCTCAAACCGGAGTCACCTAGTGCAG | 14000 fluorescence intensity (a.u.)
AAAATTTCCAATTTGCAGTGTGGCTGACAGTTTCCTTATTCGGAGTCACCTAGTGCAG | 5780 fluorescence intensity (a.u.)
AACAATTAATCATGTAAATTTAATGTTACTATATTTATCTCGGAGTCACCTAGTGCAG | 27600 fluorescence intensity (a.u.)

Sequence | binding signal
AATCATCAAATTATTATTGCTAATTGATAATAATAATAATCGGAGTCACCTAGTGCAG | 17500 fluorescence intensity (a.u.)
GTTAATGATTAATTAGAGCATTTGTTGTCTCAACTATTGTCGGAGTCACCTAGTGCAG | 58600 fluorescence intensity (a.u.)
TTGATCAGCTAATTAATACAACCCAACCTTCACTAAGTTGCGGAGTCACCTAGTGCAG | 14500 fluorescence intensity (a.u.)
CGTTGATTGCCGATTCGACGATCCCACGGCTGAGAAAGGGCGGAGTCACCTAGTGCAG | 51400 fluorescence intensity (a.u.)
AAGTAATCTCAAAAGAATTGATTTCTAGCCCCATACCTAACGGAGTCACCTAGTGCAG | 4290 fluorescence intensity (a.u.)
CCCAACAAATCACAAGCTTAATTACAAACATTGCAGCCTGCGGAGTCACCTAGTGCAG | 22000 fluorescence intensity (a.u.)
GGACGATTAATTACACTCCGGTTGCAAATTCAGCATGCTGCGGAGTCACCTAGTGCAG | 11600 fluorescence intensity (a.u.)
CAAATTTGAATCAAATATAATTCAAATTCAAATTTAAATCCGGAGTCACCTAGTGCAG | 4840 fluorescence intensity (a.u.)
TTAATTCTAATTGTCCAGGTGTATTGTGACGATTCTTTTGCGGAGTCACCTAGTGCAG | 4040 fluorescence intensity (a.u.)
CTCGTTTCTTAATTTCATTAATTAACCCCTTCATGATTGCCGGAGTCACCTAGTGCAG | 12500 fluorescence intensity (a.u.)
AGGAAAATCTTAGGTGAGTGATTGTACATCAATGTTGTCACGGAGTCACCTAGTGCAG | 5380 fluorescence intensity (a.u.)
ATTACATAGATTGCGACTAATTTGCGAGACAAATCTTTTACGGAGTCACCTAGTGCAG | 19500 fluorescence intensity (a.u.)
CACACATCAATCATTCTTTGTGCTTACTGCGTCCACGAGCCGGAGTCACCTAGTGCAG | 14900 fluorescence intensity (a.u.)
CCTTTAATCATAGGATTGAGAAAACGTAGGAATAAGAAAACGGAGTCACCTAGTGCAG | 4860 fluorescence intensity (a.u.)
CAAAATTAAACTTTAAAATTCAGACTTCAGACTCCAGTGCCGGAGTCACCTAGTGCAG | 13400 fluorescence intensity (a.u.)
CATTTTGATATATCAATCGTCTTTATCACATGTAACGACACGGAGTCACCTAGTGCAG | 10700 fluorescence intensity (a.u.)
GAATATATTCAATTATTGATTTGATGAAACTAATTAAATACGGAGTCACCTAGTGCAG | 14200 fluorescence intensity (a.u.)
TGCATTAATTATTGGAGAGTGCGGTCTCCTCTCCTCCCTCCGGAGTCACCTAGTGCAG | 23200 fluorescence intensity (a.u.)
AATATGATTGCTTTGTGGGTGTATGGTTCATTTTCAATGGCGGAGTCACCTAGTGCAG | 47700 fluorescence intensity (a.u.)
AGTTTGTGATTATAGCTTCCCTAAATGTATTTCAGCAGGACGGAGTCACCTAGTGCAG | 7140 fluorescence intensity (a.u.)
AATCCAATTACACACATGATATGCAGGGGACCATCAGAAGCGGAGTCACCTAGTGCAG | 20700 fluorescence intensity (a.u.)
AGTATGGCAGCCACGAAATGATTGAAATCAACTGGCTCTTCGGAGTCACCTAGTGCAG | 7450 fluorescence intensity (a.u.)
TCGATAAATTGAGGAGACCAAAATTCACGAAATCAACATACGGAGTCACCTAGTGCAG | 7550 fluorescence intensity (a.u.)
CCTGATTCCTTCAACTGTTTCGTCAGCCATGACGAGCGTTCGGAGTCACCTAGTGCAG | 6750 fluorescence intensity (a.u.)
AATATAACGAAACATGCAATCAATCAAAATGTTGGGAAGGCGGAGTCACCTAGTGCAG | 12400 fluorescence intensity (a.u.)
GATGATAGACAAAACTGAGTTTATGACAATTATTCGAGAGCGGAGTCACCTAGTGCAG | 51600 fluorescence intensity (a.u.)
